The full ranking holds about 81,000 sequences; the median of “one-hybrid fitness for binding parS DNA” is about -0.17, and the highest 2% start at about 0.51. This is one part of the list.
B1: Caulobacter ParB omega fusion; a variant is named by its letters at X, in order, B8GW30 (parent)
chain: MESVVVGEPGMSEGRRGLGRGLSALLGEVDAAPAQAPGEQLGGSREAPIEILQRNPDQPRRTFREEDLEDLSNSIREKGVLQPILVRPSPDTAGEYQIVAGERAWRAAQRAGLKTVPIMVRELDDLAVLEIGIIENVQRADLNVLEEALSYKVLMEKFERTQENIAQTIGKSXSHVANXMRLLXLPDEVQSYLVSGELTAXHARAIAAAADPVALAKQIIEGGLSVRETEALARKAPNLSAGKSKGGRPPRVKDTDTQALESDLSSVLGLDVSIDHRGSTGTLTITYATLEQLDDLCNRLTRGI

Variants of: B1
Test: one-hybrid fitness for binding parS DNA (scaled: cognate 1, non-cognate 0); higher = stronger binding
Settings: with parS DNA site
Method in brief: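 Bacterial one-hybrid selection in E. coli USO rpoZ- hisB- pyrF- with a HIS3 reporter carrying the site 19 bp from the promoter, screening Caulobacter ParB libraries with four specificity codons randomised (NNS). Cells grew 48 hours at 37°C on M9-minus-histidine plus 0.1 mM IPTG and 5 mM 3-AT. Plasmids before and after selection were Illumina-sequenced, three replicate libraries pooled, and variants under 10 reads dropped. Fitness is the log change in variant-to-wild-type read ratio, rescaled to cognate 1, non-cognate 0.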

one-hybrid fitness for binding parS DNA, 0.223:
RWYN

one-hybrid fitness for binding parS DNA, 0.254:
RFAM

one-hybrid fitness for binding parS DNA, 0.609:
RLCA

one-hybrid fitness for binding parS DNA, 0.881:
RWRG

one-hybrid fitness for binding parS DNA, 0.296:
RIYW

one-hybrid fitness for binding parS DNA, 0.473:
RHRY

one-hybrid fitness for binding parS DNA, ≤ 0.2:
RPPQ
LLRG
HWCH
SGPF
PMHG
HHQY
NTRF
SSGK
GVFP
RCLI
DDGT
SDSF
WRQC
CANE
QLDF
LKRV
GRFI
ACTN
NGED
RPDA
SCEC
NNTG
TRQR
SLHC
KDDS
LVIW
KDHC
RCQQ
LHQE
SACS
GVNA
HLPF
DFYC
LNEM
RSIE
RQQD
INLC
NVKG
ETCC
VAHN
NVWA
TPKC
PDVG
LSLC
ATRP
PTPD
QHIH
QCML
LDKK
QQWT
YPVA
HYRW
QCSP
FWQS
RGEF
PLHA
EVPS
NVPP
PHWR
QLYD
RKKR
FRNG
FLHG
SHRD
QNIL
RRWW
NFDR
FSYS
PWVI
STRG
SRCY
TVPC
WCYS
PMAS
DDSF
GIDR
GCMR
NGGN
PIAM
PMAG
ADQS
EDHG
CFGC
QYNE
LMDK
WSKG
QDNQ
REHY
NSTA
IDTG
CNCM
TDQR
QPAG
PFAN
VDVR
YKDW
PYYF
YQQD
TYSN
TMSS
VWTC
PHSF
AWQG
IVSR
PFGR
ICDS
QIMD
HEAL
RHHE
NIWS
TCMK
ECMS
DKAR
KKNT
WGRI
RMNI
GSHP
QQIT
ESVM
YREW
MHEG
ALNY
MKSR
RVWL
PSSC
RCQK
SHWC
INCG
LQYM
KHLC
KKPY
RWCP
EVMV
GNWR
NPIT
LESV
TGPL
MNKR
ALME
LTTP
TCLI
VHRR
LMET
HACT
HKAG
KLTL
VTPS
VHIG
DGRY
TILV
AIYV
QTWT
QYSM
SKPI
YDPM
TRRG
PDLS
HSMI
AVAL
TVLQ
FKCS
TICV
DRHA
PPVG
GATE
LLAC
PGHW
DNRI
QRID
VPYR
QDKI
MDSS
PMKY
MLNW
VSPR
MHWS
YSLL
TCYH
IESG
TNKL
IGYR
GPTW
DASF
RGSQ
REWT
TLIY
VQPW
GRTW
ECRG
KCQS
NHSG
TPYI
EDLD
ATRF
VFAG
GDNV
TGEF
QCIL
QQWC
ISRT
LFQG
HMNL
WTFI
DLAG
SLFM
TTKM
DIGS
QSAK
TASF
PHDN
WVFS
SMWA
HMLM
VGAC
PPLI
GHWM
YYCR
NANA
DIYG
VSIR
AGLS
HNGA
VDDD
NTYT
TNKV
KAMI
WTQG
FEYV
WAHG
VPTW
DQSF
QDEM
GNNT
YKPT
PHIQ
VMQW
QSAW
GASQ
LHHG
YKNA
LMIR
NSRR
PTYM
HWVG
DGAP
PEGA
TFRV
MLSR
RQTE
KRAR
SNVF
ELTC
TWEL
ARNS
VTMI
RHNW
AIMF
DMVG
NYEF
QQDR
CVER
ETSN
TYKL
CLVL
VMWG
LAMC
SPSL
NTYF
GQLC
PGFC
FFIS
PTLF
SVHF
GTKN
SEYI
TMTW
MINP
ACPF
VVRS
RKLQ
CFAG
GCNS
LFST
WRNR
HQQD
RKMH
RCED
ARKH
HKTK
PMIT
WNYG
GEKR
SAQC
ADLM
CQPL
KSQV
RGGY
HCAA

one-hybrid fitness for binding parS DNA, 0.914:
RHHS

one-hybrid fitness for binding parS DNA, 0.2:
REGG
